Test results from the supplement of paper PMC6206098.
± gives the uncertainty stated by the source. The sequences are guide strands of siRNAs; only the seed at positions 2 to 7 varies.

Columns and labels:
3LL = assay: cell viability relative to siNT1 control; higher = less toxic; conditions: concentration: 10 nM; 96 h; Mus musculus;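 further: Luminescence-based viability of cells reverse transfected in 384-well plates with lipid-complexed siRNAs built on a non-toxic 19mer backbone whose passenger strand carries 2′-O-methyl groups at positions 1 and 2, triplicates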
Protocol: (§1)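 Arrayed screen of 4096 siRNA duplexes, each carrying one of all possible 6mer seeds at guide-strand positions 2-7 in a fixed neutral 19mer scaffold (constant flanks: U at position 1, then ACAUGUAAACCA, plus a 3' AA overhang). The passenger strand is 2'-O-methylated at positions 1-2 so only the guide strand loads into RISC. Duplexes were reverse-transfected at 10 nM with RNAiMAX in triplicate in 384-well plates; viability was read by CellTiter-Glo ATP content 96 h after transfection. Values are % viability normalised to lipid-only wells (HeyA8, H460, M565) or to siNT1 (3LL).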

H460 = assay: cell viability relative to lipid-only control; HeyA8 human ovarian and H460 human lung cancer; M565 mouse liver and 3LL mouse lung cancer; siNT1 is a non-toxic control siRNA; higher = less toxic; conditions: concentration: 10 nM; 96 h; Homo sapiens
Protocol: as §1

HeyA8 = assay: as above; conditions: concentration: 10 nM; 96 h; Homo sapiens
Protocol: as §1

M565 = assay: as above; conditions: concentration: 10 nM; 96 h; Mus musculus
Protocol: as §1
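Wherever cell viability relative to lipid-only control is given: reverse lipid transfection in 384-well plates, in triplicate, of duplexes on a non-toxic 19mer backbone with passenger strand 2′-O-methylated at positions 1 and 2, luminescence viability read-out.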

UAUCAACACAUGUAAACCAAA
cell viability (3LL): 102 ± 4.3%
cell viability (H460): 65.6 ± 6.5%
cell viability (HeyA8): 82.8 ± 5.9%
cell viability (M565): 113 ± 15%

UAUCAAGACAUGUAAACCAAA
cell viability (3LL): 103 ± 5.6%
cell viability (H460): 56.6 ± 9.5%
cell viability (HeyA8): 99.5 ± 5%
cell viability (M565): 75.5 ± 12%

UAUCAAUACAUGUAAACCAAA
cell viability (3LL): 112 ± 9.9%
cell viability (H460): 66.7 ± 5.6%
cell viability (HeyA8): 91.2 ± 5%
cell viability (M565): 88.4 ± 24%

UAUCACAACAUGUAAACCAAA
cell viability (3LL): 106 ± 7.7%
cell viability (H460): 36.1 ± 3.2%
cell viability (HeyA8): 106 ± 3.2%
cell viability (M565): 113 ± 18%

UAUCACCACAUGUAAACCAAA
cell viability (3LL): 38.3 ± 3.3%
cell viability (H460): 39.2 ± 1.8%
cell viability (HeyA8): 59.5 ± 7.2%
cell viability (M565): 47.6 ± 5%

UAUCACGACAUGUAAACCAAA
cell viability (3LL): 114 ± 15%
cell viability (H460): 36.7 ± 3.4%
cell viability (HeyA8): 92.5 ± 5.1%
cell viability (M565): 118 ± 12%

UAUCACUACAUGUAAACCAAA
cell viability (3LL): 60.7 ± 8.9%
cell viability (H460): 38.3 ± 4.5%
cell viability (HeyA8): 68.1 ± 2.5%
cell viability (M565): 117 ± 25%

UAUCAGAACAUGUAAACCAAA
cell viability (3LL): 118 ± 9.7%
cell viability (H460): 64.5 ± 4.2%
cell viability (HeyA8): 92 ± 6.1%
cell viability (M565): 88.1 ± 16%

UAUCAGCACAUGUAAACCAAA
cell viability (3LL): 32.9 ± 5.7%
cell viability (H460): 36.8 ± 5.4%
cell viability (HeyA8): 43.6 ± 3.2%
cell viability (M565): 24.7 ± 3%

UAUCAGGACAUGUAAACCAAA
cell viability (3LL): 90.4 ± 5.3%
cell viability (H460): 63.7 ± 4%
cell viability (HeyA8): 81.9 ± 3.1%
cell viability (M565): 74.3 ± 13%

UAUCAGUACAUGUAAACCAAA
cell viability (3LL): 112 ± 3.8%
cell viability (H460): 60 ± 4.9%
cell viability (HeyA8): 27.6 ± 3.7%
cell viability (M565): 113 ± 12%

UAUCAUAACAUGUAAACCAAA
cell viability (3LL): 123 ± 13%
cell viability (H460): 28.7 ± 6.1%
cell viability (HeyA8): 97.2 ± 2.4%
cell viability (M565): 96.7 ± 11%

UAUCAUCACAUGUAAACCAAA
cell viability (3LL): 20.6 ± 2.8%
cell viability (H460): 36.9 ± 3%
cell viability (HeyA8): 56.4 ± 1.9%
cell viability (M565): 62.5 ± 4.8%

UAUCAUGACAUGUAAACCAAA
cell viability (3LL): 115 ± 12%
cell viability (H460): 27.6 ± 3.4%
cell viability (HeyA8): 91.9 ± 4.3%
cell viability (M565): 82.6 ± 12%

UAUCAUUACAUGUAAACCAAA
cell viability (3LL): 107 ± 11%
cell viability (H460): 44.4 ± 11%
cell viability (HeyA8): 96.9 ± 11%
cell viability (M565): 94.8 ± 14%

UAUCCAAACAUGUAAACCAAA
cell viability (3LL): 112 ± 6.4%
cell viability (H460): 91.4 ± 14%
cell viability (HeyA8): 98.2 ± 11%
cell viability (M565): 80 ± 4.2%

UAUCCACACAUGUAAACCAAA
cell viability (3LL): 82.6 ± 14%
cell viability (H460): 43.8 ± 6.6%
cell viability (HeyA8): 73 ± 4.6%
cell viability (M565): 92.7 ± 8.4%

UAUCCAGACAUGUAAACCAAA
cell viability (3LL): 102 ± 8.4%
cell viability (H460): 78.2 ± 7.1%
cell viability (HeyA8): 87.4 ± 4.8%
cell viability (M565): 34.7 ± 3.8%

UAUCCAUACAUGUAAACCAAA
cell viability (3LL): 105 ± 6.4%
cell viability (H460): 82.9 ± 8.3%
cell viability (HeyA8): 83.2 ± 9.5%
cell viability (M565): 72.6 ± 4.2%

UAUCCCAACAUGUAAACCAAA
cell viability (3LL): 71.5 ± 6.1%
cell viability (H460): 38.8 ± 3.7%
cell viability (HeyA8): 23.9 ± 3.6%
cell viability (M565): 73.3 ± 8.9%

UAUCCCCACAUGUAAACCAAA
cell viability (3LL): 3.4 ± 0.49%
cell viability (H460): 45.8 ± 2.9%
cell viability (HeyA8): 23.2 ± 2.7%
cell viability (M565): 12.2 ± 2.3%

UAUCCCGACAUGUAAACCAAA
cell viability (3LL): 67.5 ± 4.3%
cell viability (H460): 88 ± 4.8%
cell viability (HeyA8): 85.3 ± 6.6%
cell viability (M565): 90.3 ± 14%

UAUCCCUACAUGUAAACCAAA
cell viability (3LL): 19.3 ± 4.9%
cell viability (H460): 53.1 ± 5%
cell viability (HeyA8): 82.2 ± 2.7%
cell viability (M565): 64.7 ± 8.8%

UAUCCGAACAUGUAAACCAAA
cell viability (3LL): 105 ± 3.9%
cell viability (H460): 100 ± 7.1%
cell viability (HeyA8): 97 ± 3.2%
cell viability (M565): 97.2 ± 15%

UAUCCGCACAUGUAAACCAAA
cell viability (3LL): 93.4 ± 8.8%
cell viability (H460): 67.9 ± 5.3%
cell viability (HeyA8): 64.7 ± 8.4%
cell viability (M565): 72.3 ± 15%

UAUCCGGACAUGUAAACCAAA
cell viability (3LL): 95.8 ± 7.4%
cell viability (H460): 99.7 ± 6.7%
cell viability (HeyA8): 85 ± 13%
cell viability (M565): 103 ± 7.7%

UAUCCGUACAUGUAAACCAAA
cell viability (3LL): 91.2 ± 6.6%
cell viability (H460): 73.7 ± 3.4%
cell viability (HeyA8): 74.3 ± 6.2%
cell viability (M565): 58.8 ± 14%

UAUCCUAACAUGUAAACCAAA
cell viability (3LL): 117 ± 6.4%
cell viability (H460): 96.7 ± 9.6%
cell viability (HeyA8): 91 ± 2.3%
cell viability (M565): 76.6 ± 14%

UAUCCUCACAUGUAAACCAAA
cell viability (3LL): 36.4 ± 3.8%
cell viability (H460): 35.1 ± 1.8%
cell viability (HeyA8): 48.8 ± 7%
cell viability (M565): 49.4 ± 9.6%
